Data published in the supplement of paper PMC12217912.
Some of the results follow. The full chains were built here from the parent and the listed change. Inactive controls read about 0.05.

B1: TEV protease; numbered along this chain (parent)
chain: MGESLFKGPRDYNPISSSICHLTNESDGHTTSLYGIGFGPFIITNKHLFRRNNGTLVVQSLHGVFKVKDTTTLQQHLVDGRDMIIIRMPKDFPPFPQKLKFREPQREERICLVTTNFQTKSMSSMVSDTSCTFPSGDGIFWKHWIQTKDGQCGSPLVSTRDGFIVGIHSASNFTNTNNYFTSVPKNFMELLTNQEAQQWVSGWRLNADSVLWGGHKVFMVKPEEPFQPVKEATQL

Variants of: B1
Assay: raw area under fraction-flipped curve 0-4 h after induction (AUC4h, not background-subtracted), DNA-recorder readout of cleavage of the substrate (dimensionless); higher = more cleavage of the substrate by the protease variant
Conditions: temperature: 34 °C; time window: 0-4 h after rhamnose induction
Procedure: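 In vivo DNA recorder in E. coli TOP10(DE3) ΔrhaA at 34 °C. Each TEVp single-site mutant (parent TEVp 0) is paired with a single-site variant of the 7-mer TEVs (canonical ENLYFQ|S). The substrate sits between flexible linkers in a Bxb1-sfGFP-TEVs-SsrA fusion, so cleavage stabilises Bxb1 and speeds flipping of a recombination array, read by NGS. The value is the raw area under the fraction-flipped curve over 0-4 h after rhamnose induction (AUC4h), with ≥20 reads per time point. It is not background-subtracted; inactive controls average about 0.047.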
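Further: Bxb1 expression induced with 0.2% (w/v) L-rhamnose at OD600 near 0.5, cultures sampled hourly, flipped fraction per protease–substrate barcode pair counted by paired-end Illumina sequencing.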

Row | Variant | area with substrate CNLYFQS | area with substrate DNLYFQS | area with substrate FNLYFQS | area with substrate HNLYFQS | area with substrate KNLYFQS | area with substrate LNLYFQS | area with substrate NNLYFQS | area with substrate PNLYFQS | area with substrate QNLYFQS | area with substrate TNLYFQS | area with substrate WNLYFQS | area with substrate GNLYFQS | area with substrate MNLYFQS | area with substrate RNLYFQS | area with substrate YNLYFQS | area with substrate SNLYFQS | area with substrate INLYFQS | area with substrate VNLYFQS
1 | MGESLFKGPRDYNPISSSICHLTNESDGHTTSLYGIGFGQFIITNKHLFRRNNGTLVVQSLHGVFKVKDTTTLQQHLVDGRDMIIIRMPKDFPPFPQKLKFREPQREERICLVTTNFQTKSMSSMVSDTSCTFPSGDGIFWKHWIQTKDGQCGSPLVSTRDGFIVGIHSASNFTNTNNYFTSVPKNFMELLTNQEAQQWVSGWRLNADSVLWGGHKVFMVKPEEPFQPVKEATQL [P40Q] | 0.0721 | 0.0644 | 0.0733 | 0.0568 | 0.0636 | 0.0691 | 0.0556 | 0.0633 | 0.0757 | 0.0613 | 0.054 |  |  |  |  |  |  | 
2 | MGESLFKGPRDYNPISSSICHLTNESDGHTTSHYGIGFGPFIITNKHLFRRNNGTLVVQSLHGVFKVKDTTTLQQHLVDGRDMIIIRMPKDFPPFPQKLKFREPQREERICLVTTNFQTKSMSSMVSDTSCTFPSGDGIFWKHWIQTKDGQCGSPLVSTRDGFIVGIHSASNFTNTNNYFTSVPKNFMELLTNQEAQQWVSGWRLNADSVLWGGHKVFMVKPEEPFQPVKEATQL [L33H] | 0.0626 | 0.0568 | 0.0647 |  | 0.0573 | 0.0662 | 0.0589 | 0.061 |  | 0.0611 | 0.0613 | 0.0549 | 0.0412 | 0.0556 | 0.0751 |  |  | 
3 | MGESLFKGPRDYNPISSSICHLTNESDGHTTSLYGIGFGPFIITNKHLFRRNNGTLVVQSLHGVFKVKDTTTLQQHLVDGRDMIIIRMPKDFPPFPQKLKFREPQREERICLVTTNFQTKSMSSMVSDTSCTFPSGDGIFWKHWIQTKDGQCGSPLVSTRDGFIVGIHSASNFTNTNNYFTSVPSNFMELLTNQEAQQWVSGWRLNADSVLWGGHKVFMVKPEEPFQPVKEATQL [K185S] | 0.0625 | 0.0891 |  | 0.0496 |  | 0.0514 |  | 0.0813 |  |  | 0.074 | 0.0593 | 0.0602 |  | 0.0455 | 0.0678 |  | 
4 | MGESLFKGPRDYNPISSSICHLTNESDGHTTSLYGIGFGPFIITNKHLFRRNNGTLVVQSLHGVFKVKDTTTLQQHLVDGRDMIIIRMPKDFPPFPQKLKFREPQREERICLVTTNFQTKSMSSMVSDTSCTFPSGDGIFWKHWIQTKDGQCGSPLVSTRDGFIVGIHSASNFTNTNNYFTSVPKNFMELLTNQEAQQWVGGWRLNADSVLWGGHKVFMVKPEEPFQPVKEATQL [S201G] | 0.0529 | 0.0576 | 0.0544 | 0.0542 | 0.0956 |  | 0.0697 | 0.0606 | 0.058 | 0.0392 | 0.0609 |  | 0.0567 |  | 0.0532 | 0.0345 |  | 
5 | MGESLFKGPRDYNPISSSICHLTNESDGHTTSLYGIGFGPFIITNKHLFRRNNGTLVVQSLHGVFKVKDTTTLQQHLVDGRDMIIIRMPKDFPPFPQKLKFREPQREERICLVTTNFQTKSMSSMVSDTSCTFPSGDGIFWKHWIQTKDGQCGSPLVSTRDGFIVGIHSASNFTNTNNYFTSVPKNFMELLTNQEFQQWVSGWRLNADSVLWGGHKVFMVKPEEPFQPVKEATQL [A196F] | 0.0788 | 0.0827 | 0.0617 | 0.0603 |  | 0.0525 |  | 0.0538 |  | 0.0717 | 0.0605 | 0.0717 | 0.0915 |  |  | 0.0363 | 0.0625 | 0.0545
6 | MGESLFKGPRDYNPISSSICHDTNESDGHTTSLYGIGFGPFIITNKHLFRRNNGTLVVQSLHGVFKVKDTTTLQQHLVDGRDMIIIRMPKDFPPFPQKLKFREPQREERICLVTTNFQTKSMSSMVSDTSCTFPSGDGIFWKHWIQTKDGQCGSPLVSTRDGFIVGIHSASNFTNTNNYFTSVPKNFMELLTNQEAQQWVSGWRLNADSVLWGGHKVFMVKPEEPFQPVKEATQL [L22D] | 0.0483 | 0.051 | 0.0288 | 0.0468 |  | 0.045 | 0.0646 | 0.0452 | 0.0458 | 0.0551 | 0.0371 |  | 0.0173 | 0.0349 | 0.0453 | 0.0541 | 0.0497 | 0.0423
7 | MGESLFKGPRDYNPISSSICHLTNESDGHTTSLYGIGFGPFIITNKHLFRRNNGTLVVQSLHGVFKVKDTTTLQQHLVDGRDMIIIRMPKDFPPFPQKLKFREPQREERICLVTTNFQTKSMSSMVSDTSCTFPSGDGIFWKHWIQTKDGQCGSPLVSTRDGFIVGIHSASNFTNTINYFTSVPKNFMELLTNQEAQQWVSGWRLNADSVLWGGHKVFMVKPEEPFQPVKEATQL [N177I] | 0.0974 | 0.152 |  | 0.0966 | 0.0889 | 0.0952 | 0.126 |  |  |  | 0.0698 |  |  |  |  | 0.0898 | 0.148 | 
8 | MGESLFKGPRDYNPISSSICHLKNESDGHTTSLYGIGFGPFIITNKHLFRRNNGTLVVQSLHGVFKVKDTTTLQQHLVDGRDMIIIRMPKDFPPFPQKLKFREPQREERICLVTTNFQTKSMSSMVSDTSCTFPSGDGIFWKHWIQTKDGQCGSPLVSTRDGFIVGIHSASNFTNTNNYFTSVPKNFMELLTNQEAQQWVSGWRLNADSVLWGGHKVFMVKPEEPFQPVKEATQL [T23K] | 0.0647 | 0.0797 |  | 0.0794 | 0.0772 | 0.0519 |  | 0.0861 |  | 0.0629 | 0.0523 | 0.0696 | 0.0611 |  |  |  | 0.0599 | 
9 | MGESLFKGPRDYNPISSSICHLTNESDGHTTSLYGIGFGPFIITNKHLFRRNNGTLVVQSLHGVFKVKDTTTLQQHLVDGRDMIIIRMPKDFPPFPQKLKFREPQREERICLVTTNFQTKSMSSMVSDTSCTFPSGDGIFWKHWIQTKDGQCGSPLVSTRDGFIVGIHSASNHTNTNNYFTSVPKNFMELLTNQEAQQWVSGWRLNADSVLWGGHKVFMVKPEEPFQPVKEATQL [F173H] | 0.0543 | 0.0652 | 0.0646 | 0.0616 | 0.0654 | 0.0708 | 0.0644 | 0.0599 | 0.0526 | 0.0597 | 0.0612 | 0.0711 | 0.0593 |  |  | 0.0643 | 0.0659 | 0.068
